Source: paper PMC10462243 (Research Square, 2023)
No constants are given. Whether binding was seen depends on the method and setting. For some of these results: Binding seen in cells or lysates may run through a third protein. Some entries that bind do so weakly or less than the wild type. For some of these results: Sequences can lack the tags named with a protein.

By UniProt entry, the sequences of proteins in these tests, tags left out. Where a name states a change or a piece, a line headed by the entry shows the natural chain unless it says otherwise. Chains listed by the source or under a name are the forms on record and can include a tag or linker. Residues count along the entry.
UniProt Q9Y4B6: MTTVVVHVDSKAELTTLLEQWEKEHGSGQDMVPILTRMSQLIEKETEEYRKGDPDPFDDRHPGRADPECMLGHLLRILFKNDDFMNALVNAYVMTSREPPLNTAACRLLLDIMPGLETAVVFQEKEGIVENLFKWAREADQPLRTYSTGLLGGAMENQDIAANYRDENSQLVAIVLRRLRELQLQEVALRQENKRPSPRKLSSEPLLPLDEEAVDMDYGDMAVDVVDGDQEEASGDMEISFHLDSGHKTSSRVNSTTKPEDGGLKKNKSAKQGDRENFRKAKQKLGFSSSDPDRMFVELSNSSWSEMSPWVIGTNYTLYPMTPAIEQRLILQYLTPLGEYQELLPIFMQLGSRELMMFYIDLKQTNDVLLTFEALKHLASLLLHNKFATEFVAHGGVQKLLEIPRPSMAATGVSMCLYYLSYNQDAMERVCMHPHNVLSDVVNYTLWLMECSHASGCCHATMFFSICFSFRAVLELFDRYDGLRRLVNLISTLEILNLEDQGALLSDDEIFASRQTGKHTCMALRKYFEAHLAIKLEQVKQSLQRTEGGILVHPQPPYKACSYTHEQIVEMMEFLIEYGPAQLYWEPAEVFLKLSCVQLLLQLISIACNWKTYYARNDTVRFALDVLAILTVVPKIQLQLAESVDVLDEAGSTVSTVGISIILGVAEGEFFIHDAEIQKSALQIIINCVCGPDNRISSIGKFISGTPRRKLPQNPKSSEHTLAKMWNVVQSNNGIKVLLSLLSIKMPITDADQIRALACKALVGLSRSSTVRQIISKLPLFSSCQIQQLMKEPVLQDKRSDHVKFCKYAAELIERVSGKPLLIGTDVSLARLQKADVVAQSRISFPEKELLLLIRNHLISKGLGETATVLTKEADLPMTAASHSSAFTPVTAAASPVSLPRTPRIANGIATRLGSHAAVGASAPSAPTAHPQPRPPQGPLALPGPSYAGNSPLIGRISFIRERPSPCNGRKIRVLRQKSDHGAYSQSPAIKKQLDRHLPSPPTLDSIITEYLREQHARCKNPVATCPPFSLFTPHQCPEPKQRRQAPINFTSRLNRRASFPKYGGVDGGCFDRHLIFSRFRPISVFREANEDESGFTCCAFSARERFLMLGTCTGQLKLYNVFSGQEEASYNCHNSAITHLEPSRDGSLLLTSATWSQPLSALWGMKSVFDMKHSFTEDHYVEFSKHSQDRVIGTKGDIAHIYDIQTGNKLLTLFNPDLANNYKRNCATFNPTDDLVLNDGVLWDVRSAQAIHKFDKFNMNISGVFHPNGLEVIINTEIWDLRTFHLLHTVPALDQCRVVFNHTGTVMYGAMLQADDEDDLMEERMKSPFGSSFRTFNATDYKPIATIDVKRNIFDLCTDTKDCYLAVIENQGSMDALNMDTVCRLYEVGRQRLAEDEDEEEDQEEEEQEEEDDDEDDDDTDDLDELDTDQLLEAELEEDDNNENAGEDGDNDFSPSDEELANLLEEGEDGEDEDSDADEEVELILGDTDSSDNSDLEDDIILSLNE
VprBP WD40-AR(1057–1507): residues 1057-1507 of Q9Y4B6
VprBP AR (residues 1401–1507): residues 1401-1507 of Q9Y4B6
VprBP(1401–1450): residues 1401-1450 of Q9Y4B6
His-MBP-fused VprBP(1446–1507): residues 1446-1507 of Q9Y4B6
UniProt P12520: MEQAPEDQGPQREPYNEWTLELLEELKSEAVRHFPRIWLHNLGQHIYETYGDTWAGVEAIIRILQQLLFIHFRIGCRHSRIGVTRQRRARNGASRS
Vpr(51–96) fragment (HIV-1 (pNL4–3)): residues 51-96 of P12520
Vpr(75–96) fragment (HIV-1 (pNL4–3)): residues 75-96 of P12520
UniProt Q16531: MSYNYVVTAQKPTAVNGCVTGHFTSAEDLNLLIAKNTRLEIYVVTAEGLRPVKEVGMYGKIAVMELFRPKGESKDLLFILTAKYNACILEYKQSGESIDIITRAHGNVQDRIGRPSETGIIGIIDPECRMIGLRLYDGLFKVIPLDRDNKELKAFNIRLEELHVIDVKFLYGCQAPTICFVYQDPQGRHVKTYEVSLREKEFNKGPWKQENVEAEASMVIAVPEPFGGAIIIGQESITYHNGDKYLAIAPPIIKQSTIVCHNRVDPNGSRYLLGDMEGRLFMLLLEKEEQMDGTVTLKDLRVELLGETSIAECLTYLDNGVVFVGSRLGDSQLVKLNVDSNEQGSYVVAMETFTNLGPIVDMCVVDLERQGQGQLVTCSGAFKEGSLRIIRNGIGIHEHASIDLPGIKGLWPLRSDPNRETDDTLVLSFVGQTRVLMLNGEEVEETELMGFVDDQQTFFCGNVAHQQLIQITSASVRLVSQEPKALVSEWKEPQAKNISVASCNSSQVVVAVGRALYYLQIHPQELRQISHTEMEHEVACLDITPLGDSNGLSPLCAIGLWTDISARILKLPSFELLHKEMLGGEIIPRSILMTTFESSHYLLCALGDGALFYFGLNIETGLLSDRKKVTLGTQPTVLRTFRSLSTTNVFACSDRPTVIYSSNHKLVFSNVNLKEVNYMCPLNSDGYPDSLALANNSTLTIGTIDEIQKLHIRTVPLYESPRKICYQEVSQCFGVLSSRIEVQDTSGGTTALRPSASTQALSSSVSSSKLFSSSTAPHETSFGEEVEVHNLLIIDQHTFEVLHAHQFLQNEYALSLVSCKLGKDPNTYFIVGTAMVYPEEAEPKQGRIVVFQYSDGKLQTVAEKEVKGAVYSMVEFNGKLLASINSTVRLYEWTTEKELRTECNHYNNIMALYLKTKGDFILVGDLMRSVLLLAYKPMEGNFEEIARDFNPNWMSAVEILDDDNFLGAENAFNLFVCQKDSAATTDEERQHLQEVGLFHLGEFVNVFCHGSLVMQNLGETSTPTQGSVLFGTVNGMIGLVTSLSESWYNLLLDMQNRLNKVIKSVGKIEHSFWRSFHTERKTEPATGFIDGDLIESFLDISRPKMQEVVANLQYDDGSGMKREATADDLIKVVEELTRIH

Experiments:
[1] = molecular target: T1, full-length Plk4 (transfected) (UniProt O00444); experiment: co-IP; HEK293T cells transfected with the indicated constructs; TBSN buffer (20 mM Tris-HCl pH 8.0, 120 mM NaCl, 0.5% Nonidet P-40, 5 mM EGTA, 1.5 mM EDTA, 2 mM DTT); immunoblot; thymidine- or nocodazole-treated cells in Supplementary Fig. 2b; with or without co-expressed Vpr or VprBP in Fig. 3b-d and Supplementary Fig. 3a-d
T1 sequence: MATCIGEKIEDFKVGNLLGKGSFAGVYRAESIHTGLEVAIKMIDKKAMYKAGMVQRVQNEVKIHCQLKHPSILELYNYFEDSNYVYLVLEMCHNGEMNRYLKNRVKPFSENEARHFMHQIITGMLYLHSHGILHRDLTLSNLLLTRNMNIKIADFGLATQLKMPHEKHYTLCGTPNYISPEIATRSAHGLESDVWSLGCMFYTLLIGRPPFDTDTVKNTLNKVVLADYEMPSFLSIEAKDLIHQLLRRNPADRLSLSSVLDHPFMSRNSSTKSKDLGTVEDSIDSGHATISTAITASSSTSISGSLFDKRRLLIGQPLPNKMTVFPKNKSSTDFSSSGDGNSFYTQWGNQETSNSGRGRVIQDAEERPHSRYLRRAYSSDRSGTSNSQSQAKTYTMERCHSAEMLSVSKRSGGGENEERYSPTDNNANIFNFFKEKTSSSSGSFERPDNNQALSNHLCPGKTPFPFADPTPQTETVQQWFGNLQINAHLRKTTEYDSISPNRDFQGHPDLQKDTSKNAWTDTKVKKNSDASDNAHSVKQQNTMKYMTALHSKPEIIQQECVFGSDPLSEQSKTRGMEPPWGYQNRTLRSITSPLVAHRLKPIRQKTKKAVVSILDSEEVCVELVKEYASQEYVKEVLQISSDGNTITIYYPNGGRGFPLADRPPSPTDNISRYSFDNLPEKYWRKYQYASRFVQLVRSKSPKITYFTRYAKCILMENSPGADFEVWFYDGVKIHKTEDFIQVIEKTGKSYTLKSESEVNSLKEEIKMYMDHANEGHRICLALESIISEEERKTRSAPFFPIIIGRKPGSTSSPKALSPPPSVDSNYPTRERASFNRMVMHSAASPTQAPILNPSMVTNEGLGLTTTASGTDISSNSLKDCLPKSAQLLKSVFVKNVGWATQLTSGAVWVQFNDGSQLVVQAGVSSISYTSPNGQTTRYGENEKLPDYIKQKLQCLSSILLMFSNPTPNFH

[2] = molecular target: Plk4 CPB (co-IP construct) (UniProt O00444); experiment: as above
[3] = molecular target: Plk4 CTD (co-IP construct) (UniProt O00444); experiment: as above
[4] = molecular target: VprBP(1401–1450) (UniProt Q9Y4B6); experiment: as above
[5] = molecular target: Vpr(51–96) fragment (HIV-1 (pNL4–3)) (UniProt P12520); experiment: as above
[6] = molecular target: mGFP-STREP-TEV-fused Vpr (HIV-1 (pNL4–3)) (UniProt P12520); experiment: as above
[7] = molecular target: Vpr(75–96) fragment (HIV-1 (pNL4–3)) (UniProt P12520); experiment: as above
[8] = molecular target: VprBP AR (residues 1401–1507) (UniProt Q9Y4B6); experiment: as above
[9] = molecular target: HIV-1 Vpr (pNL4–3), transfected (HIV-1 (pNL4–3)) (UniProt P12520); experiment: as above
[10] = molecular target: VprBP(1446–1507) (co-IP construct) (UniProt Q9Y4B6); experiment: as above
[11] = molecular target: His-MBP-fused VprBP(1446–1507) (UniProt Q9Y4B6); experiment: SEC; SEC profile and Coomassie-stained SDS-PAGE of MBP-VprBP(1446–1507) and CPB(581–808); both purified
[12] = molecular target: VprBP WD40-AR(1057–1507) (UniProt Q9Y4B6); experiment: SEC; purified Vpr, VprBP(1057–1507), Plk4 CPB(581–808) and DDB1; HisTrap eluate of VprBP and Vpr digested with TEV, mixed with Plk4 CPB; SEC in 20 mM Tris-HCl pH 7.5, 100 mM NaCl, 10% glycerol; stoichiometry estimated from Coomassie-stained protein intensity; both purified

For “DDB1 (co-IP with full-length Plk4) (from UniProt Q16531 1-1140)”, the binding [1] was “binds”.

For “full-length VprBP (transfected) (from UniProt Q9Y4B6 1-1507)”, the binding [2] was “binds”, the binding [1] was “binds” and the binding [3] was “binds”.

B1: full-length Plk4 (transfected) (protein, UniProt O00444 1-970)
chain: MATCIGEKIEDFKVGNLLGKGSFAGVYRAESIHTGLEVAIKMIDKKAMYKAGMVQRVQNEVKIHCQLKHPSILELYNYFEDSNYVYLVLEMCHNGEMNRYLKNRVKPFSENEARHFMHQIITGMLYLHSHGILHRDLTLSNLLLTRNMNIKIADFGLATQLKMPHEKHYTLCGTPNYISPEIATRSAHGLESDVWSLGCMFYTLLIGRPPFDTDTVKNTLNKVVLADYEMPSFLSIEAKDLIHQLLRRNPADRLSLSSVLDHPFMSRNSSTKSKDLGTVEDSIDSGHATISTAITASSSTSISGSLFDKRRLLIGQPLPNKMTVFPKNKSSTDFSSSGDGNSFYTQWGNQETSNSGRGRVIQDAEERPHSRYLRRAYSSDRSGTSNSQSQAKTYTMERCHSAEMLSVSKRSGGGENEERYSPTDNNANIFNFFKEKTSSSSGSFERPDNNQALSNHLCPGKTPFPFADPTPQTETVQQWFGNLQINAHLRKTTEYDSISPNRDFQGHPDLQKDTSKNAWTDTKVKKNSDASDNAHSVKQQNTMKYMTALHSKPEIIQQECVFGSDPLSEQSKTRGMEPPWGYQNRTLRSITSPLVAHRLKPIRQKTKKAVVSILDSEEVCVELVKEYASQEYVKEVLQISSDGNTITIYYPNGGRGFPLADRPPSPTDNISRYSFDNLPEKYWRKYQYASRFVQLVRSKSPKITYFTRYAKCILMENSPGADFEVWFYDGVKIHKTEDFIQVIEKTGKSYTLKSESEVNSLKEEIKMYMDHANEGHRICLALESIISEEERKTRSAPFFPIIIGRKPGSTSSPKALSPPPSVDSNYPTRERASFNRMVMHSAASPTQAPILNPSMVTNEGLGLTTTASGTDISSNSLKDCLPKSAQLLKSVFVKNVGWATQLTSGAVWVQFNDGSQLVVQAGVSSISYTSPNGQTTRYGENEKLPDYIKQKLQCLSSILLMFSNPTPNFH
With B1 the binding [4] was “no binding”, the binding [5] was “binds weakly” and the binding [6] was “binds”. For the same molecule, the binding [7] was “binds weakly”, the binding [8] was “binds” and the binding [9] was “binds”. For the same molecule, the binding [10] was “binds”.

B2: Plk4 CPB(581–808) (co-expressed with His-MBP-VprBP(1446–1507)) (domain or fragment, UniProt O00444 581-808)
chain: GYQNRTLRSITSPLVAHRLKPIRQKTKKAVVSILDSEEVCVELVKEYASQEYVKEVLQISSDGNTITIYYPNGGRGFPLADRPPSPTDNISRYSFDNLPEKYWRKYQYASRFVQLVRSKSPKITYFTRYAKCILMENSPGADFEVWFYDGVKIHKTEDFIQVIEKTGKSYTLKSESEVNSLKEEIKMYMDHANEGHRICLALESIISEEERKTRSAPFFPIIIGRKPG
With B2 the binding [11] was “binds”.

B3: Plk4 CPB(581–808), purified (domain or fragment, UniProt O00444 581-808, looked up)
chain: GYQNRTLRSITSPLVAHRLKPIRQKTKKAVVSILDSEEVCVELVKEYASQEYVKEVLQISSDGNTITIYYPNGGRGFPLADRPPSPTDNISRYSFDNLPEKYWRKYQYASRFVQLVRSKSPKITYFTRYAKCILMENSPGADFEVWFYDGVKIHKTEDFIQVIEKTGKSYTLKSESEVNSLKEEIKMYMDHANEGHRICLALESIISEEERKTRSAPFFPIIIGRKPG
notes: Plk4 cryptic polo-box, residues 581–808; Two copies for each Vpr•VprBP in the SEC complex; The construct has a TEV site
In the case of B3, the binding [12] is reported as “binds”.
